In all, about 33,000 sequences were measured (“E-score (-0.5 to 0.5)”: median about -0.011, highest 2% from about 0.28 on). The list shows a part of the results.
The sequences below were run against T1, Gcr1 (UniProt P07261) (assay: PBM E-score (8-mer binding enrichment) (E-score (-0.5 to 0.5)); higher = stronger / more preferred TF binding; most listed sequences are background and not binding sites). Conditions: protein concentration: 100 nM; construct: GST-full length.
T1 sequence: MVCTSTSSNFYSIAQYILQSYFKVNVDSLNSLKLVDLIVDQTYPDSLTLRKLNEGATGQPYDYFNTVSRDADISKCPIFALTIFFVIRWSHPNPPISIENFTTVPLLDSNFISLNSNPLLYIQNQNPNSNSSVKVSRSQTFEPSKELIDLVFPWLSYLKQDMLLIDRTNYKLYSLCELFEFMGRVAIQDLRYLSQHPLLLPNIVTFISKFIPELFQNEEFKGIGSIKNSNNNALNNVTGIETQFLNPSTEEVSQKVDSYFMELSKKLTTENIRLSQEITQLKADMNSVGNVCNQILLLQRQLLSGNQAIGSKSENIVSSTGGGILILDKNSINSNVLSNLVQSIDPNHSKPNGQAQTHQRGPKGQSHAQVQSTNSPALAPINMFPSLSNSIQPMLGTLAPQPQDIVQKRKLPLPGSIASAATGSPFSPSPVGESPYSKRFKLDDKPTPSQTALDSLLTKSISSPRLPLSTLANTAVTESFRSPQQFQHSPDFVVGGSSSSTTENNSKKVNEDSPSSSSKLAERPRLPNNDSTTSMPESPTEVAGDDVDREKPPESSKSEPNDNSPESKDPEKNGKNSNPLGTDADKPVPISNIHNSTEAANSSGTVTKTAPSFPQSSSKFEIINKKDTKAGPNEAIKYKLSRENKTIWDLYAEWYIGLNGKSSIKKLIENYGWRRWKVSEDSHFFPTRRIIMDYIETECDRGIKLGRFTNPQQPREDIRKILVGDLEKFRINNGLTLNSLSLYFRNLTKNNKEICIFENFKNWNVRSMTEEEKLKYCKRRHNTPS
Protocol: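 Universal 'all 10-mer' protein binding microarrays (Agilent AMADID 015681) probed with GST-tagged S. cerevisiae TFs (full-length or DBD) made by in vitro transcription/translation (PURExpress), about 100-200 nM. Bound TF was detected with fluorescent anti-GST. Each ungapped 8-mer (which stands for itself and its reverse complement) is scored by the PBM enrichment score (E-score), a modified Wilcoxon-Mann-Whitney statistic from -0.5 to +0.5, computed with the Universal PBM Analysis Suite. Scale: above 0.35 generally sequence-specific binding.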

Row | Sequence | PBM E-score
1 | GCAGACGC | 0.15
2 | AAGGGGTC | -0.19
3 | GAGGTACA | -0.0675
4 | AACTGAAT | 0.145
5 | GCCTCCCC | 0.165
6 | CTCGTCGA | -0.314
7 | AACTATCT | -0.0328
8 | ATATCCTC | -0.118
9 | AGGGTGAC | 0.019
10 | CTATATCC | 0.0474
11 | GACCTTAA | -0.0557
12 | CAACTTGG | 0.0901
13 | AGGGTGAG | -0.186
14 | AGAGTACT | -0.304
15 | CGACATTC | -0.0306
16 | ACAAGCCA | -0.275
17 | CAGTATCG | -0.0211
18 | ATAAACTC | -0.0769
19 | ACCTATTA | 0.152
20 | CTGCTGGA | 0.0938
21 | CCATGACA | -0.207
22 | CTCGTGCC | -0.0839
23 | AGGCAATG | -0.272
24 | CCCTGGCG | 0.0359
25 | CGGCAAGC | -0.0115

Row | Sequence | PBM E-score
26 | CCGCACAG | -0.103
27 | ATTCATAA | -0.0219
28 | CCCTTGCC | -0.171
29 | CGTCTTTA | 0.213
30 | CATCGCCG | -0.0764
31 | ACCCCTTC | 0.0192
32 | CCACCGGC | 0.13
33 | GATTTTGC | -0.0195
34 | GCGACACC | -0.0258
35 | ATCGGGTC | -0.0793
36 | CAGCACTC | -0.114
37 | CCGGGAAC | 0.172
38 | ATTCTTAA | 0.205
39 | GCGGCAAC | 0.0813
40 | ACATGCGA | -0.18
41 | GCTATCCA | -0.104
42 | GAGGACAC | -0.225
43 | ACCTCCAC | 0.0842
44 | ACTGATCT | -0.116
45 | GCGAGAGA | -0.106
46 | CGTTAGAG | -0.0235
47 | ATGTGGTA | 0.0954
48 | CGGACTAG | -0.217
49 | GCCATACC | 0.0599
50 | CCCTTTTA | 0.00798

Row | Sequence | PBM E-score
51 | GGCGAGGA | -0.101
52 | AGGATAGG | 0.0177
53 | GAGTTATA | -0.115
54 | TCGTCAGA | -0.245
55 | GGTAATCA | -0.195
56 | CTTGCGTC | -0.0686
57 | TAAAAGGA | 0.153
58 | CCGACTCC | -0.0254
59 | AACATTTC | -0.0184
60 | GAGCTTGC | -0.244
61 | ACAATTGG | -0.131
62 | GACGTGGA | -0.141
63 | AAGTAGCC | 0.0411
64 | GCGAATTA | -0.00089
65 | AGAGAGAC | -0.101
66 | ACAGCGCA | -0.231
67 | ATACGGAT | 0.116
68 | ATCCGGCG | 0.143
69 | CCAAGCGC | 0.0772
70 | AAAGAAGC | 0.262
71 | CCTCCTTC | -0.13
72 | AGTTTACA | 0.0426
73 | AGCTACAG | 0.0682
74 | AAATCCAT | 0.129
75 | ATGTGAAT | -0.145

Row | Sequence | PBM E-score
76 | ATTAGCAC | 0.0277
77 | GGACTGCC | -0.0677
78 | GAATCTGC | 0.139
79 | TCGCGGAA | -0.11
80 | AGGTACCG | 0.0491
81 | CGAATTGC | -0.175
82 | GGACTATA | -0.0925
83 | CCGACCGA | -0.201
84 | CTACCCCC | -0.16
85 | GAGCCGCA | 0.0487
86 | GTCCCATA | 0.0928
87 | CAGGAGGG | -0.0272
88 | GGCAAATA | -0.103
89 | CATCGGGA | 0.0473
90 | ACACCGAC | -0.157
91 | ATGATTTA | 0.0654
92 | TAGTCTGA | -0.0964
93 | AGCGGAGC | -0.151
94 | GGGCGTTA | -0.0666
95 | GTCCGACA | 0.0648
96 | CGGACACC | 0.0465
97 | CGGATCAA | -0.0941
98 | CGTCCACA | 0.0868
99 | CTCTCATC | -0.0935
100 | CCCGGATA | 0.00805

Row | Sequence | PBM E-score
101 | CCGCCGCA | 0.0722
102 | TAAGACAA | -0.0918
103 | GGCTCTAC | 0.0648
104 | ACGGGTTC | 0.00654
105 | ACCCTAAT | 0.0853
106 | AAGATGTA | 0.0085
107 | CATAATTA | 0.103
108 | CTCCGAGC | -0.0144
109 | CCATTCGA | 0.104
110 | CGTAGAGC | 0.0698
111 | GACGGTGA | -0.246
112 | ATCGACGG | -0.18
113 | TCAACGCA | -0.226
114 | GACCCTCC | -0.0438
115 | AGAACTAA | -0.187
116 | GGAACACC | -0.0671
117 | GCAACCAA | 0.302
118 | CTTCCCAC | 0.206
119 | AGTTTTTC | 0.0995
120 | CGTGGACC | -0.0622
121 | AACGCAGA | 0.0509
122 | ATCGGCTG | -0.123
123 | CACACACG | 0.217
124 | AGAGATAA | 0.0874
125 | GGGCTGAA | -0.0743

Row | Sequence | PBM E-score
126 | ATCGATTC | 0.125
127 | CGTTGCCA | 0.0696
128 | ATCAGGGG | -0.143
129 | AGAAGGGC | -0.091
130 | GGCACATA | 0.208
131 | GCGCAATA | 0.114
132 | AGGTCGAG | -0.112
133 | CAGCGAAC | -0.195
134 | GGAGGCAA | -0.149
135 | GTGTCCCA | -0.101
136 | CCGCTAGG | -0.135
137 | CACCACAA | 0.217
138 | GTATGCTA | -0.0409
139 | ACTGGGCA | 0.0436
140 | ACGTCGCA | -0.0147
141 | GTAATATA | 0.161
142 | AACCTTCT | 0.147
143 | CGGGCACG | 0.107
144 | TATCACGA | 0.0314
145 | ATATAAGG | 0.0992
146 | CCATCAGG | -0.171
147 | ACAAACCT | -0.129
148 | AATTTCAA | 0.137
149 | GTAAGAAC | -0.0201
150 | CTCGTAAC | 0.123

Row | Sequence | PBM E-score
151 | TAGACGCA | 0.263
152 | ACTTAAAC | -0.0348
153 | CAACTACC | 0.0316
154 | CGAGCGCA | -0.102
155 | CACATGAG | 0.0841
156 | ATGCCCGC | -0.193
157 | GTTAGGAA | 0.171
158 | TCCGGAAA | 0.172
159 | TCGACGAA | -0.18
160 | CGCACCCG | 0.0194
161 | GCCAGCAC | 0.0816
162 | ATGTGTTC | 0.0237
163 | GCGCAAAC | -0.0195
164 | GCTGCAAC | 0.13
165 | AGGGCAAA | -0.232
166 | CCGGGCGC | 0.229
167 | CATGAAAG | -0.00556
168 | CATACGGA | 0.0485
169 | AGCGAGGA | -0.0372
170 | CACTAAAC | 0.134
171 | AAACGGCG | 0.054
172 | AGTGTAAT | -0.00732

Source: the supplement of paper PMC3334620
